This note sets out measurements from paper PMC4336329 (PLoS ONE, 2015).

In all, about 310,000 compounds went through this assay and about 2,200 (0.71%) showed an effect of 50% or more. The effect is printed as a negative number. Some of the results follow.

human ether-à-go-go-related gene (hERG) potassium channel, sequence (Q12809 whole entry, looked up): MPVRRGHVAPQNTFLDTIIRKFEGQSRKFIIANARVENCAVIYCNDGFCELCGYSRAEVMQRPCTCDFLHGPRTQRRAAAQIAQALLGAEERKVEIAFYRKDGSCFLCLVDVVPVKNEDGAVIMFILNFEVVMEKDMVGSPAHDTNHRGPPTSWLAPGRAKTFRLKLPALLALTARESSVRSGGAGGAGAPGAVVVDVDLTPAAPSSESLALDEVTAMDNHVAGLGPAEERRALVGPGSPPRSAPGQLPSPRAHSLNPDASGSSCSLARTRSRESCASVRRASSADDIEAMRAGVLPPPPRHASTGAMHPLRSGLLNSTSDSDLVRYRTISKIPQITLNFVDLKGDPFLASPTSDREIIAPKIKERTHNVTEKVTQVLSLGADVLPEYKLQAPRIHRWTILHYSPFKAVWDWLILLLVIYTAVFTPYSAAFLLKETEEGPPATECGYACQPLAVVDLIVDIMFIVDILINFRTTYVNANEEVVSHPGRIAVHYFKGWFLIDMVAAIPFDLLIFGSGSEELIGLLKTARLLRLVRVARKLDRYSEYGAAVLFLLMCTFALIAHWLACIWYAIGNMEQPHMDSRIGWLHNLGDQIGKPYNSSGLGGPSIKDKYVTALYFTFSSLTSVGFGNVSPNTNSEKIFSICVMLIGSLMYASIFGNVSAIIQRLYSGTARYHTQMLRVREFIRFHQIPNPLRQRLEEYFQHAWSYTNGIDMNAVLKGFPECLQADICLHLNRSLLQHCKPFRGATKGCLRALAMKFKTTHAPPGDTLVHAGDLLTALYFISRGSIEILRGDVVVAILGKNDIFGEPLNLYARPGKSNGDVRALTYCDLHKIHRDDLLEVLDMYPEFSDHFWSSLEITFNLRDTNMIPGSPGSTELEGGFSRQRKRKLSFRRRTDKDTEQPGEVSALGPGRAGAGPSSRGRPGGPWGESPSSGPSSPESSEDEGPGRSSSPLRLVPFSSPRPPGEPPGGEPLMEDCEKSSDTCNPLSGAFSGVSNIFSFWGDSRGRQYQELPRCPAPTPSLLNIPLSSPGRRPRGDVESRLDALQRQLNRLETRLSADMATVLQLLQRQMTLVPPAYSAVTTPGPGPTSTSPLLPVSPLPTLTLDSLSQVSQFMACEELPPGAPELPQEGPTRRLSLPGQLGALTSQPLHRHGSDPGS

This assay addresses human ether-à-go-go-related gene (hERG) potassium channel (human, UniProt Q12809). Kind of assay: primary screen, population patch clamp on CHO cells stably expressing hERG.
Take `COc1ccccc1CNC(=O)CSc1nc2c(oc3ccccc32)c(=O)n1CC1CCCO1` (stereo not drawn): the “hERG current change (%, negative = inhibition) at 1uM” value is listed as 6.02%.
For the molecule `O=C(N/N=C/c1ccc(Cl)c([N+](=O)[O-])c1)c1cc(-c2ccccc2)nc2ccccc12`, the “hERG current change (%, negative = inhibition) at 1uM” value is reported as 14.1%.
As to `COc1cc(/C=N/NC(=O)COc2ccc(Cl)cc2)ccc1OS(=O)(=O)c1ccc(C)cc1`, the “hERG current change (%, negative = inhibition) at 1uM” value is on record as 17.4%.
For `O=C(Nc1ccc2c(c1)CCC2)c1cccc(F)c1` the value was 2.91%.
Turning to `COc1ccc(CNC(=O)COC(=O)/C=C/c2cccc(Br)c2)cc1`, the “hERG current change (%, negative = inhibition) at 1uM” value is on record as 14.8%.
Then `CCCCCOC(=O)c1cc(=O)[nH]c2ccccc12`, with 11.9%; and `COc1cc(NS(=O)(=O)c2ccc(NC(=S)NC(=O)c3ccccc3)cc2)nc(OC)n1`, with 2.03%.
Regarding `Cc1cc(=O)n2nc(N3CCCC3C(=O)Nc3ccc(C(C)C)cc3)sc2n1` (stereo not drawn), the “hERG current change (%, negative = inhibition) at 1uM” value came to 4.13%.
`O=C(CC1Nc2ccccc2NC1=O)Nc1cc(Cl)cc(Cl)c1` (stereo not drawn): the “hERG current change (%, negative = inhibition) at 1uM” value is 6.36%.
As for `CCOC(=O)CCCNC(=O)COC(=O)c1cc(Br)c(Br)s1`, the “hERG current change (%, negative = inhibition) at 1uM” value is given as 9.38%.
As for `O=C(OCC#CCSc1nnc(-c2cccc3ccccc23)o1)c1ccco1`, the “hERG current change (%, negative = inhibition) at 1uM” value is -6.89%.
Consider `CCCCC(=O)c1c(O)c2ccccc2oc1=O`, for which the “hERG current change (%, negative = inhibition) at 1uM” value is reported as 16.3%.
As for `CCC(C(=O)OC)n1cnc2c(nnn2-c2ccc(OC)cc2)c1=O` (stereo not drawn), the “hERG current change (%, negative = inhibition) at 1uM” value was 2.6%.
For `CCN(CC)c1ccc(NC(=O)C2=CCN(S(=O)(=O)c3ccc(F)cc3)CC2)c(C)c1` the value was 11.2%; for `NC(=O)c1nsc(C(=O)N(c2ccccc2)C(C(=O)NC2CCCC2)c2ccc3ncccc3c2)c1N` (stereo not drawn), 15.3%; for `Cc1cc(C(=O)Nc2c(F)c(F)c(F)c(F)c2F)n(-c2ccccc2)n1`, -19.3%.
Consider `Cc1ccc(CO/N=C/c2c(O)cc(C)oc2=O)cc1`, for which the “hERG current change (%, negative = inhibition) at 1uM” value was 17%.
Consider `Cc1cc(C)c(S(C)(=O)=O)c(Oc2ccccc2C)n1`, for which the “hERG current change (%, negative = inhibition) at 1uM” value came out at 17.9%.
`O=C1c2cccc3cccc(c23)C(=O)N1CCN1CCN(CC(O)COc2ccccc2)CC1` (stereo not drawn): the “hERG current change (%, negative = inhibition) at 1uM” value was -29.1%.
Regarding `COc1ccc(OC)c(S(=O)(=O)NCc2ccccc2)c1`, the “hERG current change (%, negative = inhibition) at 1uM” value was -7.58%.
With `Cc1ccc(OCC(=O)N2CCCc3ccccc32)cc1`, the “hERG current change (%, negative = inhibition) at 1uM” value came to 9.17%.
In the case of `COc1ccc(N2CCN(C(=O)C3CCN(S(=O)(=O)c4ccc5c(c4)oc(=O)n5C)CC3)CC2)cc1`, the “hERG current change (%, negative = inhibition) at 1uM” value is on record as 6.2%.
For `COc1ccccc1N1CCN(C(=O)c2ccoc2C)CC1`, the “hERG current change (%, negative = inhibition) at 1uM” value is given as 2.23%.
Turning to `CCNC(=S)N1CCN(CC)CC1.O=C(O)C(=O)O`, the “hERG current change (%, negative = inhibition) at 1uM” value was found to be 5.42%.
As for `CC(=O)Nc1ccc2nc3c(=O)n(C)c(=O)n(C)c3nc2c1`, the “hERG current change (%, negative = inhibition) at 1uM” value was -6.43%.
With `CC(C)N(C)CCOC(=O)C1COc2ccccc2O1.Cl` (stereo not drawn), the “hERG current change (%, negative = inhibition) at 1uM” value is on record as 15.6%.
Take `CCN(CC)S(=O)(=O)c1ccc2[nH]c(=O)cc(C(=O)Nc3ccccc3N3CCOCC3)c2c1`: the “hERG current change (%, negative = inhibition) at 1uM” value is given as 3.38%.
Turning to `Cc1nn(-c2ccccc2)c(Cl)c1C1C(C#N)=C(N)OC2=C1C(=O)CCC2` (stereo not drawn), the “hERG current change (%, negative = inhibition) at 1uM” value worked out at 5.31%.
As to `O=C(NCCCN1CCOCC1)c1sc2ccccc2c1Cl`, the “hERG current change (%, negative = inhibition) at 1uM” value amounted to 8.84%.
For `O=C(CN(C(=O)CNS(=O)(=O)c1ccccc1)c1ccc(F)cc1)NCc1ccco1` the value was 15.6%; for `O=C(c1ccc2ccccc2n1)N(CCO)Cc1ccccc1`, 13.3%; for `O=C(N/N=C/c1cccc(F)c1)c1csc2c1CCCC2`, -11.3%.
As to `COc1ccc(Cl)cc1NC(=O)Nc1cccc([N+](=O)[O-])c1C`, the “hERG current change (%, negative = inhibition) at 1uM” value is given as 14.7%.
In the case of `Cc1ccc(NC(=O)NCc2cccnc2)cc1Cl`, the “hERG current change (%, negative = inhibition) at 1uM” value is 12.2%.
For `Cc1cc(C)n(CNc2nc(C(F)(F)F)cs2)n1` the value was 5.41%; for `Cc1c(Cl)cccc1NC(=S)NCC(C)C`, 9.6%; for `COc1ccccc1N1CCN(Cc2cc(=O)n3ccsc3n2)CC1`, 13.5%.
As for `Nc1cccc(Oc2ccc3c(c2)C(=O)N(CC2CCCO2)C3=O)c1` (stereo not drawn), the “hERG current change (%, negative = inhibition) at 1uM” value was 12.6%.
For the molecule `Cn1c(CSc2ccccc2)c(C#N)c2ccccc21`, the “hERG current change (%, negative = inhibition) at 1uM” value is listed as 1.49%.
Regarding `CCCCN(C)C(=O)c1nc2ccccn2c1CN1CCN(C(=O)c2cccs2)CC1`, the “hERG current change (%, negative = inhibition) at 1uM” value is given as -21%.
`Cc1nn(-c2ccc(F)cc2)c(Cl)c1C(=O)N(C)CC(=O)Nc1cccc(F)c1`: the “hERG current change (%, negative = inhibition) at 1uM” value is reported as 9.09%.
`N#Cc1c(-c2ccccc2Cl)cc(-c2ccccc2)nc1Br`: the “hERG current change (%, negative = inhibition) at 1uM” value is on record as 16.8%.
For `COc1ccc(C2(C)CC(C)(C)Nc3ccccc32)cc1` (stereo not drawn), the “hERG current change (%, negative = inhibition) at 1uM” value was determined as 14.3%.
Take `Cc1[nH]c2ccccc2c1SCC(=O)NNC(=O)Nc1ccc(OC(F)(F)F)cc1`: the “hERG current change (%, negative = inhibition) at 1uM” value is 19.4%.
Consider `C/C(=N\NC(=O)c1ccc(N)cc1)C1CC1`, for which the “hERG current change (%, negative = inhibition) at 1uM” value is reported as 14.5%.
For `Cc1nc(-c2cccc(NC(=O)c3cccc(S(=O)(=O)N4CCCC4)c3)c2)cs1` the value was 2.64%; for `Cc1cc(=O)oc(C)c1C(=O)N[C@@H]1CCCCNC1=O`, 11.2%; for `CC1(C)NC(=O)N(CCSc2ccc(Cl)cc2)C1=O`, 15%.
For `CCOc1cccc2c1OC(c1cc(OC)c(OC)c(OC)c1)N1N=C(c3ccc(C)o3)CC21` (stereo not drawn), the “hERG current change (%, negative = inhibition) at 1uM” value turned out to be 12.6%.
Regarding `O=C(COC(=O)c1cn(-c2ccccc2)nc1-c1cccnc1)NC1CC1`, the “hERG current change (%, negative = inhibition) at 1uM” value is listed as 8.66%.
Then `CCc1ccccc1N(CC(=O)NCCSCc1ccco1)S(C)(=O)=O`, with -5.51%.
Consider `CC(C)N1C(=O)CCC1C(=O)NC1CCCC1` (stereo not drawn), for which the “hERG current change (%, negative = inhibition) at 1uM” value is reported as -0.75%.
In the case of `CC(C)c1ccc(NC(=O)CSc2ncccc2C(=O)Oc2cccc([N+](=O)[O-])c2)cc1`, the “hERG current change (%, negative = inhibition) at 1uM” value stood at 7.96%.
On to `CCCn1c(SCC(=O)Nc2cc(Cl)ccc2OC)n[nH]c1=O`, for which the “hERG current change (%, negative = inhibition) at 1uM” value came out at 3.15%.
With `CCc1noc(C)c1C(=O)Nc1cc(C(F)(F)F)ccc1-n1cncn1`, the “hERG current change (%, negative = inhibition) at 1uM” value is 1.31%.
Then `CC1(C)CC(=O)C2=C(C1)N1C(=C(C#N)C2c2ccccc2Cl)N=C(N)c2ccccc21` (stereo not drawn), with -6.37%; and `Fc1ccccc1N1CCN(CCCc2ccccc2)CC1`, with -18.4%.
